# Assay results reported in PubChem BioAssay AID2546 (National Center for Advancing Translational Sciences (NCATS), 2010).
# Hit rate of the full screen: of about 310,000 compounds, about 11,000 (3.5%) were called active. This list was built around the results that the source calls inconclusive (neither active nor inactive); the mix of calls is not that of the screen. Calls come from the whole dose curve; as a rule, active = well fitted inhibition curve with a large enough effect; inconclusive = small, poorly fitted or top-dose-only effect, or effect the other way; inactive = flat fitted curve, though single readings scatter. No potency is given beside an inconclusive call; the fits are too rough.
# Assay: VP16 counterscreen qHTS for inhibitors of ROR gamma transcriptional activity;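 note: Gal4-VP16 expression switched on by copper sulfate through the metallothionein promoter; nearly all actives have a fitted effect of over 50% in size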
# Details: Drosophila S2 Gal4-VP16 UAS-luciferase, luminescence, 20 h; activity, negative = inhibition: at 53.6 µM (top of the series)
# % is set by controls: 0 for no effect and ±100 for the full control effect; potency is the fitted concentration of half-maximal effect; tags give direction and shape of the fitted curve.
Compound,Potency,"activity, negative = inhibition"
O=C(Nc1cc(Cl)ccc1Cl)c1ccc(-c2ccccc2)cc1,"inconclusive [inhibitor, single point]",
CN(Cc1ccccc1)c1nc2c(c(=O)[nH]c(=O)n2C)n1Cc1ccccc1,,inactive: -9.95%
COc1cc(/C=N/n2c(-c3ccccc3)n[nH]c2=S)cc(OC)c1O,,inactive: -12.9%
N/C(Cn1cncn1)=N\NC(=O)C(=O)Nc1ccc(Cl)cc1Cl,"inconclusive [inhibitor, single point]",
COc1ccc2c(c1OC)c(=O)n1c3ccc(OC(C)C(=O)NCCCN4CCOCC4)cc3c3ccnc2c31 (stereo unspecified),,inactive: -17.7%
COc1ccc2[nH]cc(CCNc3ncncc3-c3ccoc3)c2c1,active: 11.2 µM,
COc1cccc2c1C(=O)c1c(O)c3c(c(O)c1C2=O)C[C@](O)(C(C)=O)C[C@H]3O[C@@H]1C[C@H](N)[C@H](O)[C@H](C)O1,active: 4.47 µM,
O=S(=O)(NCC1CCCO1)c1ccc(Oc2ccccc2)cc1 (stereo unspecified),"inconclusive [inhibitor, single point]",
Cc1cccc(NC(=O)Nc2cccc(Oc3c(F)c(F)c(F)c(F)c3F)c2)c1,"inconclusive [inhibitor, single point]",
S=C1NCN(C2CCCCC2)CN1c1ccccc1,"inconclusive [inhibitor, single point]",
OC1(c2ccc(OC(F)F)cc2)CSC(=Nc2cccnc2)N1Cc1ccco1 (stereo unspecified),"inconclusive [inhibitor, single point]",
c1ccc(-c2ccccc2OCCCCn2ccnc2)cc1,"inconclusive [inhibitor, single point]",
O=C(/C=C/c1c(Cl)cccc1Cl)NCCc1ccccc1,,inactive: -3.81%
CC(C)(C)NC(=O)CN(Cc1ccc(F)cc1)C(=O)Cn1nnc(-c2ccc(F)cc2)n1,,inactive: -5.73%
Cc1cc(Oc2ccccc2)nc(-c2ccccc2)n1,"inconclusive [inhibitor, single point]",
CCCCn1c(=N)n(CC(=O)c2ccc(Br)s2)c2ccccc21,"inconclusive [inhibitor, single point]",
O=C(Nc1nc(-c2ccc3ccccc3c2)cs1)c1ccc(N2C(=O)CCC2=O)cc1,"inconclusive [inhibitor, single point]",
N=c1c2c(-c3ccccc3)c(-c3ccccc3)n(Cc3ccccc3)c2ncn1CCCn1ccnc1,active: 10 µM,
Cc1ccc2nc(-c3cccc(N)c3)[nH]c2c1,active: 8.91 µM,
Cc1ccc(NS(=O)(=O)c2ccc(Cl)c(NC(=S)NC(=O)C3CCCCC3)c2)cc1Cl,"inconclusive [inhibitor, single point]",
COc1ccccc1-c1nnc(NC(=O)CCS(=O)(=O)c2ccccc2)o1,active: 10 µM,
COc1ccc(CCNC(=O)c2cn(C)c3ccc(S(=O)(=O)N4CCOCC4)cc3c2=O)cc1OC,"inconclusive [inhibitor, single point]",
C=C(C)COc1ccc(-c2[nH]ncc2Oc2ccc(OC)cc2)c(O)c1,"inconclusive [inhibitor, single point]",
CCOC(=O)C1=C(C)NC(=S)NC1c1ccc(-c2cccc(Cl)c2C)o1 (stereo unspecified),active: 8.91 µM,
Cc1cc(CN(C)C(=O)C2CCC(=O)N(CCc3cccc(F)c3)C2)on1 (stereo unspecified),,inactive: -7.16%
FC(F)Sc1ccc(NC(=S)N2CCN(c3ccccn3)CC2)cc1,"inconclusive [inhibitor, single point]",

Compound,Potency,"activity, negative = inhibition"
Nc1nc(CSc2ncn(-c3ccccc3)n2)cs1,"inconclusive [inhibitor, single point]",
O=C(NC(=S)NCCC1=CCCCC1)c1ccccc1Br,active: 3.16 µM,
O=C(Cc1ccccc1)NCC(=O)OCC(=O)c1ccc(Cl)c([N+](=O)[O-])c1,"inconclusive [inhibitor, single point]",
CCOC(=O)C1=C(C)N(c2ccc(OC)cc2)C(=O)/C1=C\c1ccc(O)c(OCC)c1,"inconclusive [inhibitor, single point]",
COc1ccc(C)cc1NS(=O)(=O)c1ccc2c(c1)NC(=O)C(C)S2 (stereo unspecified),"inconclusive [inhibitor, full curve, poor fit]",
O=C(CNCC1CCCCC1)Nc1ccccc1N1CCCCC1,,inactive: -5.82%
c1ccc(-c2ccccc2OCCn2cncn2)cc1,"inconclusive [inhibitor, single point]",
COc1cc(C)nc(-n2nc(C)cc2OC)n1,"inconclusive [inhibitor, single point]",
CCCCCCC1CCC(C(=O)Nn2c(C)nc3ccccc3c2=O)CC1 (stereo unspecified),,inactive: -1.11%
O=C(NCc1ccc(F)cc1)N1CCc2ccccc2C1,"inconclusive [inhibitor, single point]",
O=C(CSc1ccc2ccccc2n1)N/N=C/c1ccc(O)cc1,"inconclusive [inhibitor, partial curve]",
O=S(=O)(c1ccc(OCC(O)CNC23CC4CC(CC(C4)C2)C3)c(Cl)c1)N1CCOCC1 (stereo unspecified),,inactive: -8.63%
Cc1cc(NS(=O)(=O)c2ccc(NC(=O)c3cc4cc(Br)ccc4oc3=O)cc2)no1,,inactive: 5.47%
C=CCNC(=S)NN(c1ccccc1)c1ccccc1,active: 6.31 µM,
FC(F)(F)COc1nc(OCC(F)(F)F)nc(N2CCN(c3ccccc3)CC2)n1,"inconclusive [inhibitor, single point]",
CCn1nc(C)c(CNC(=O)Nc2ccccc2C(=O)OC)c1C,,inactive: 7.87%
O=C(Cn1cccc1C(=O)c1ccccc1)NCc1ccccc1Cl,"inconclusive [inhibitor, single point]",
Cn1cccc1C(=O)C(=O)Nc1ccc(F)c(F)c1,"inconclusive [activator, full curve, poor fit]",
Cc1ccc(Cc2cnc(NC(=O)c3ccco3)s2)cc1,active: 5.62 µM,
Cc1c(CCC(=O)O)c(=O)oc2cc(OCc3ccccc3Br)ccc12,active: 3.16 µM,
Clc1ccccc1-c1nc2nc3ccccc3nc2n1-c1ccc2c(c1)OCO2,,inactive: 3.46%
CC(=O)NC(=S)Nc1sc2c(c1C#N)CCCCC2,active: 8.91 µM,
Cc1ccc(C2NC(=O)NC(O)(C(F)(F)F)C2C(=O)c2ccccc2)o1 (stereo unspecified),"inconclusive [activator, single point]",
O=C(O)CCc1ccc(-c2ccc(Cl)cc2)o1,"inconclusive [inhibitor, single point]",
O=C(CCOc1ccccc1)Nc1nnc(-c2ccc3c(c2)OCCO3)o1,active: 20 µM,
Cc1ccc(NC(=S)NC(=O)c2ccc(-c3ccccc3)cc2)c(C)c1,"inconclusive [inhibitor, single point]",

Compound,Potency,"activity, negative = inhibition"
CCCCCCNC(=O)N[C@H](C(=O)NCCC[C@H]1CN2C(=NC[C@H]2C)N1CCC(c1ccccc1)c1ccccc1)C(C)O (stereo partly specified),"inconclusive [inhibitor, single point]",
CC(C)(C)C(=O)N1CCC(O)(CS(=O)(=O)Cc2ccccc2Cl)CC1,active: 5.62 µM,
O=C(Cc1ccc(F)cc1)Nc1cccc2cccnc12,,inactive: -1.52%
COc1ccc(CNc2nc(Cl)c(C#N)s2)cc1,"inconclusive [activator, single point]",
O=C(NCCc1ccc(Cl)cc1)c1ccc2c(c1)OCO2,"inconclusive [activator, single point]",
CCC(C)(C)n1nnnc1C(c1ccc(C)cc1)N1CCN(Cc2ccc3c(c2)OCO3)CC1 (stereo unspecified),,inactive: -2.34%
CC(C)NC(=O)COC(=O)CNC(=O)c1cc(Cl)cc([N+](=O)[O-])c1,,inactive: -1.25%
NC(=O)CC(NC(=O)c1cccc(Br)c1)c1ccc(NC2CCCCCCC2)c([N+](=O)[O-])c1 (stereo unspecified),,inactive: -1.65%
O=C(CCS(=O)(=O)c1ccccc1)Nc1nc(-c2ccc(F)cc2)cs1,"inconclusive [inhibitor, single point]",
Cc1ccc(NCc2nnc(SCC(=O)O)n2Cc2ccccc2)cc1Cl,,inactive: -11.3%
CC(=O)Nc1cc(C(=O)OCC(=O)c2ccc(Cl)cc2Cl)ccc1C,"inconclusive [inhibitor, single point]",
CC(C)(C)NC(=O)C(c1ccsc1)N(CCc1ccccc1)C(=O)Cn1nnc2ccccc21 (stereo unspecified),,inactive: -8.49%
C=CCS(=O)(=O)N1CCC(CCOc2ccccc2)(C(=O)OCC)CC1,,inactive: 9.98%
Cc1ccc(C(C)C)c(OCc2nc(-c3nonc3N)no2)c1,,inactive: -16.1%
O=C(Cn1cc2c(n1)CCCC2)NCCCN1CCN(c2ccccc2F)CC1,,inactive: 4.77%
Cc1nnc(SCC(=O)Nc2nc(C(C)(C)C)cs2)s1,,inactive: -7.7%
O=C(C(=O)N1CCc2ccccc2C1)c1cn(CC(=O)N2CCCC2)c2ccccc12,,inactive: -5.62%
COc1ccc(S(=O)(=O)Nc2ccc3ccccc3c2)cc1C,"inconclusive [inhibitor, single point]",
C/C(=N\Nc1nc2ccccc2s1)c1cccs1,active: 3.55 µM,
COc1ccc(NS(=O)(=O)c2cc(S(C)(=O)=O)ccc2C)cc1,,inactive: 6.67%
FC(F)(F)c1cnc2c(c1)[nH]c(=S)n2-c1ccc(Cl)cc1,"inconclusive [inhibitor, partial curve]",
CC(OC(=O)CNC(=O)C12CC3CC(CC(C3)C1)C2)C(=O)Nc1ncc(Cl)cc1Cl (stereo unspecified),,inconclusive: -33.2% [inhibitor]
Cc1[nH]n(-c2ccccc2)c(=O)c1N=Nc1ccc(F)cc1,"inconclusive [activator, full curve, poor fit]",
Cc1ccc(C(=O)O/N=C(\N)c2ccc(C(F)(F)F)cn2)cc1,"inconclusive [activator, single point]",
